Source: article PMC8980021 (2022)

Target: ALPN-202 (davoceticept), variant CD80 IgV domain Fc fusion (human, UniProt P33681 69-175, E35D | M47L | V68M)
Test: SPR

B1: recombinant monomeric human CTLA-4 (receptor)
chain: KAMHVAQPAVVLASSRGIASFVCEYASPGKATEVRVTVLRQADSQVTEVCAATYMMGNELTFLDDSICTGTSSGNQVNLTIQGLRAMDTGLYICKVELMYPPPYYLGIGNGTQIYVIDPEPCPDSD
**Q.** For B1, which koff is on record?
**A.** Its koff is 0.00052 s⁻¹.
